# The campaign covered roughly 340,000 compounds. About 530 (0.16%) were called active. The shares of active, inactive and inconclusive entries below differ from those in the screen. Cut-off read from the data, not from the text of the source: active = activity change below about -80%; inconclusive = between about -30% and that limit; inactive = weaker than that.
# Assay: Small Molecules that selectively kill Giardia lamblia: qHTS;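 note: parasites exposed to compound for two days anaerobically before the ATP read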
# Conditions: Giardia lamblia trophozoite viability; at 7.66 µM; hits give low values
# How it was run: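 Luminescent ATP signal served as the viability read-out, measured 15-30 min after adding ATP detection reagent to trophozoites that had been incubated with compounds for 48 hrs at 37 deg C anaerobically at 100 cells/well.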
# % is set by controls: 0 for no effect and ±100 for the full control effect.
row,SMILES,activity change
1,CCCCN(CCCC)CC(O)CN(c1cc([N+](=O)[O-])ccc1OC)S(=O)(=O)c1ccccc1 (stereo unspecified),inactive: -0.165%
2,O=S(=O)(Nc1ccc(-n2cnnn2)cc1)c1ccccc1F,inconclusive: -30.4% [inhibitor]
3,COc1ccc(C2CC(=O)C3=C(C2)Nc2ccccc2N(C(=O)CCC(=O)O)C3c2ccc(F)cc2)cc1 (stereo unspecified),inconclusive: -30.6% [inhibitor]
4,Cc1cccc(C)c1NC(=O)CN(C)CC(=O)N(C)CC(=O)Nc1ccccc1Br,inconclusive: -38.1% [inhibitor]
5,CCOc1ccc(NC(=O)C(C)Oc2ccc(C#N)cc2)cc1S(=O)(=O)N1CCCC1 (stereo unspecified),inconclusive: -34.3% [inhibitor]
6,Cc1cc2ncn(/N=C/c3ccc([N+](=O)[O-])o3)c2cc1C,inconclusive: -30.1% [inhibitor]
7,O=C(Nc1cccc(S(=O)(=O)N2CCOCC2)c1)c1cc(=O)[nH]c2ccccc12,inconclusive: -35.4% [inhibitor]
8,O=C1COc2ccc(C(=O)COC(=O)CNC(=O)c3ccco3)cc2N1,inconclusive: -37.5% [inhibitor]
9,O=C(CSc1ccc2nnc(-c3ccccn3)n2n1)Nc1ccc(F)cc1,inactive: 4.34%
10,CC(CNc1ccccc1O)C(=O)O (stereo unspecified),inactive: 4.48%
11,C[C@@H]1CC[C@@]2(O[C@@H](CCO)C[C@@H](O)[C@@H]2O)O1,inactive: 4.11%
12,CC(C)(C)n1ncc2c(=O)n(Cc3cc(F)c(Cl)cc3Cl)cnc21,inconclusive: -32.8% [inhibitor]
13,Cc1cc([N+](=O)[O-])nn1Cc1noc(C(=O)NCc2ccc3c(c2)OCO3)n1,inconclusive: -45.7% [inhibitor]
14,CCc1ccccc1NC(=O)C1c2ccccc2Oc2ccccc21,inconclusive: -33.1% [inhibitor]
15,COC(=O)c1c(-c2cc(OC)cc(OC)c2)sc2ccc(OC)cc12,inconclusive: -32.8% [inhibitor]
16,CC(C)Cc1nnc(NC(=O)c2ccc(S(=O)(=O)N3CCCC3)cc2)s1,inactive: 5.69%
17,CCCn1nc(C(=O)NNC(=O)c2cc(S(=O)(=O)NC)ccc2Br)c2ccccc2c1=O,inconclusive: -39.8% [inhibitor]
18,CC(C)NC(=O)c1ccc(N(Cc2ccc(Cl)cc2)S(C)(=O)=O)cc1,inconclusive: -32.2% [inhibitor]
19,COc1ccc(C(=O)C(C)OC(=O)CCN2C(=O)C3CC=CCC3C2=O)cc1 (stereo unspecified),inactive: 36.3%
20,CCO[C@@H]1OC(C(=O)N2CCN(Cc3ccccc3)CC2)=C[C@H](c2ccc(C(F)(F)F)cc2)[C@H]1CCCO,inconclusive: -31.1% [inhibitor]
21,Cc1ccc(S(=O)(=O)N2[C@@H](c3ccc(Cl)cc3)C(C(=O)O)=CC[C@H]2c2cccs2)cc1,inconclusive: -33.5% [inhibitor]
22,COc1cc(-c2c(NC(=O)c3ccco3)oc3c(C)cccc3c2=O)cc(OC)c1OC,inconclusive: -34.5% [inhibitor]
23,COc1cccc(NC(=S)N(CCN(C)C)Cc2cccs2)c1,inactive: 10%
24,C/C(=N/NS(=O)(=O)c1ccc(C)cc1C)c1ccc2c(c1)OCO2,inconclusive: -38.5% [inhibitor]
25,Cc1ccc(Cl)cc1NC(=O)COc1ccccc1,inconclusive: -35.4% [inhibitor]
26,O=C(C[C@H]1C(=O)N(CCc2ccccc2)C[C@@H]1Cc1ccccc1)Nc1ccccc1,inactive: 2.7%

row,SMILES,activity change
1,CC(C)(C)C1C/C(=C/c2ccccn2)C(=O)/C(=C/c2ccccn2)C1 (stereo unspecified),inconclusive: -51.8% [inhibitor]
2,CCc1cccc(N=c2c([N+](=O)[O-])nn(-c3ccc(Cl)cc3)n2O)c1,inconclusive: -75.9% [inhibitor]
3,Cc1csc(=O)n1CCC(=O)N(C)Cc1c(F)cccc1Cl,inactive: 16.2%
4,CCN(CC)c1ccc(NC(=O)CSc2ccsc2[N+](=O)[O-])c(C)c1,inconclusive: -42.3% [inhibitor]
5,CC(C)CCCCCCCCCCCCC(=O)NCC(=O)NC1C(O)C(O)C(Nc2ncnc3nc[nH]c23)OC1C(O)CO (stereo unspecified),inactive: 5.81%
6,CCOC(=O)C1CCCN(C(=O)CCCn2nnnc2CN2CCOCC2)C1 (stereo unspecified),inconclusive: -36.8% [inhibitor]
7,CC(=O)Nc1sc2c(c1C(c1ccccn1)N1CCN(C)CC1)CCCC2 (stereo unspecified),inconclusive: -41% [inhibitor]
8,Cc1ccc(NC(=O)C(NS(=O)(=O)c2cccc3nsnc23)C(C)C)nc1 (stereo unspecified),inconclusive: -30.1% [inhibitor]
9,CCCC(=O)N1CCN(c2ccc(NC(=O)c3ccc([N+](=O)[O-])o3)cc2)CC1,active: -81.6%
10,COc1ccccc1N1CCN(CCCN2C(=O)C3CCCN3C2=O)CC1 (stereo unspecified),inconclusive: -35.3% [inhibitor]
11,Cc1ccccc1Nc1nc(N)nc(COC(=O)c2ccc([N+](=O)[O-])o2)n1,inconclusive: -62.7% [inhibitor]
12,Cn1c(N)c(C(=O)COC(=O)/C=C/c2cccc(F)c2)c(=O)n(C)c1=O,inconclusive: -35.1% [inhibitor]
13,C#CCCOC(=O)Nc1ccccc1,inconclusive: -45.7% [inhibitor]
14,O=C(N/N=C\c1c(O)ccc2ccccc12)c1ccc(O)cc1,inactive: 5.89%
15,Cc1cc(=O)oc(C)c1C(=O)O,inactive: -11.3%
16,CN(C(=O)c1cccc(NC(=O)Cc2cccc(NC(=O)C3CCN(C(=O)c4ccccc4)CC3)c2)c1)C1CCCC1,inconclusive: -35.1% [inhibitor]
17,O=C(NCc1cccc(C(F)(F)F)c1)C1CC(c2ccccc2C(F)(F)F)=NO1 (stereo unspecified),inactive: -3.61%
18,O=C(CC1(CC2=NS(=O)(=O)c3ccccc3N2)CCCC1)NCCc1ccccc1,inactive: 17.2%
19,Cc1ccc(CNC(=O)Cn2ccc3ccccc3c2=O)o1,inactive: 7.69%
20,Cc1[nH]n(-c2ccccc2)c(=O)c1N=Nc1cccc(C(=O)O)c1,inconclusive: -60.2% [inhibitor]
21,CN1CCOC(=O)/C1=N/Nc1cc(Cl)ccc1Cl,inconclusive: -31% [inhibitor]
22,CN1c2ccccc2C(=O)NC1c1ccc([N+](=O)[O-])s1 (stereo unspecified),inconclusive: -45.3% [inhibitor]
23,CCOc1ccc(OCC)c(NC(=O)C2CCCN(c3ncccn3)C2)c1 (stereo unspecified),inactive: -3.54%
24,Cc1ccc(C(=O)Nc2ccccc2[N+](=O)[O-])cc1S(=O)(=O)N1CCOCC1,inactive: -20%
25,COc1cc(/C=C(\C#N)C(=O)NCC2CCCO2)ccc1OCC(N)=O (stereo unspecified),inactive: -17.4%
26,COc1ccc(N(CC(=O)Nc2ccc(F)cc2F)S(=O)(=O)c2c(C)nn(C)c2C)cc1,inconclusive: -30.3% [inhibitor]

row,SMILES,activity change
1,CCN1CNC(=S)N(c2cccc(C)c2)C1,inconclusive: -33.2% [inhibitor]
2,Cc1cccc(Cn2nnc3c2C(=O)c2ccccc2C3=O)c1,inconclusive: -40.1% [inhibitor]
3,CCN1CCCC1CN(Cc1cc2cc(C)cc(C)c2[nH]c1=O)C(=O)Nc1ccccc1OC (stereo unspecified),inactive: -3.41%
4,COc1ccc(C)cc1NC(=O)C(c1ccccc1)N1CCN(CC(=O)NC2CC2)CC1 (stereo unspecified),inactive: -1.74%
5,O=C1c2ccccc2C(Nc2ccc(-c3nc4ccccc4[nH]3)cc2)N1Cc1ccco1 (stereo unspecified),inconclusive: -36.2% [inhibitor]
6,CCOC(=O)N1CCC(NC(=O)CSCc2nc(-c3ccc(C)cc3)oc2C)CC1,inconclusive: -36.2% [inhibitor]
7,Cc1oc(-c2ccccc2F)nc1CSCC(=O)NC1CC1,inactive: 3.32%
8,Cc1nnc(SCC(=O)NC2CCCCCC2)n1C,inconclusive: -37.8% [inhibitor]
9,Cc1ccnc(NS(=O)(=O)c2ccc(NC(=O)c3ccc4c(c3)OCCO4)cc2)n1,inconclusive: -38.3% [inhibitor]
10,CCCCNC(=O)c1ccc2c(c1)N(C)C(=O)c1ccccc1S2,inconclusive: -30.1% [inhibitor]
11,CCN(CC(=O)NCc1cccs1)S(=O)(=O)c1cccc(Br)c1,inactive: -12.3%
12,COc1cccc(-n2nnnc2SCC(=O)NCc2ccc3c(c2)OCO3)c1,inactive: -29.6%
13,COc1ccc2cc3cc(C(=O)NC4CC4)sc3nc2c1,inconclusive: -64.8% [inhibitor]
14,O=C(Nc1ccccc1N1CCN(C(=O)c2ccc(Cl)cc2)CC1)c1ccc([N+](=O)[O-])o1,active: -89.3%
15,CN1C(=O)/C(=C/c2ccc(O)c([N+](=O)[O-])c2)NC1=S,inconclusive: -70.1% [inhibitor]
16,CCn1c(=O)n(CC)c2cc(S(=O)(=O)Nc3ccccc3C)c(C)cc21,inconclusive: -35.9% [inhibitor]
17,Cc1cc(N)n2nc(-c3ccccc3)cc2n1,inconclusive: -46.3% [inhibitor]
18,Cc1cc(NC(=O)c2ccc([N+](=O)[O-])o2)ccc1NC(=O)c1ccco1,active: -94%
19,CCN(CC)S(=O)(=O)c1cccc(N=Nc2c(O)c3ccccc3oc2=O)c1,inconclusive: -49.7% [inhibitor]
20,Cc1ccc(/C=C/S(=O)(=O)NCc2ccc(F)cc2)cc1,inconclusive: -33% [inhibitor]
21,Cc1ccc(C(=O)O)c(C(=O)Nc2nc3ccccc3s2)c1,inactive: -16.7%
22,COc1ccc2c(=O)c(-c3ccc(C)cc3)c(-c3ccccc3)oc2c1,inconclusive: -36.1% [inhibitor]
23,Cc1cc(C)c(-c2csc(NC(=O)COC(=O)c3ccc4c(c3)OCO4)n2)c(C)c1,inactive: -8.93%
24,O=C(c1cccc(C(F)(F)F)c1)C1CCCN(C(=O)C2CCOCC2)C1 (stereo unspecified),inconclusive: -33.9% [inhibitor]
